Where “and” joins values, the source holds several entries; their conditions need not be identical. Identical values can stand only once. The inconclusive results got no clear call from the source; some entries with a clear call stand among them for comparison. Where the call is inconclusive, the potency comes from a doubtful curve fit. Some compounds were tested as several samples or in several runs, with calls that do not always agree. Calls of active or inactive are those of the source. The call rests on the fitted dose curve; in most records, active means well fitted inhibition curve with a large enough effect in the repeat runs; inconclusive means weak or mixed curves; inactive means no such curve, though single readings can be large or run the other way.
What follows are compounds tested against Cytochrome P450 2C19 (Homo sapiens) (UniProt P33261) (assay: Cytochrome P450 Family 2 Subfamily C Member 19 (CYP2C19) small molecule antagonists: luciferase reporter qHTS assay (AID 1671197; further: nearly all actives have a fitted effect of over 65% in size)). Details: P450-Glo CYP2C19 enzyme, luciferin luminescence, 1 h; series mostly up to 115 µM.
UniProt P33261, sequence (P33261 whole entry, looked up): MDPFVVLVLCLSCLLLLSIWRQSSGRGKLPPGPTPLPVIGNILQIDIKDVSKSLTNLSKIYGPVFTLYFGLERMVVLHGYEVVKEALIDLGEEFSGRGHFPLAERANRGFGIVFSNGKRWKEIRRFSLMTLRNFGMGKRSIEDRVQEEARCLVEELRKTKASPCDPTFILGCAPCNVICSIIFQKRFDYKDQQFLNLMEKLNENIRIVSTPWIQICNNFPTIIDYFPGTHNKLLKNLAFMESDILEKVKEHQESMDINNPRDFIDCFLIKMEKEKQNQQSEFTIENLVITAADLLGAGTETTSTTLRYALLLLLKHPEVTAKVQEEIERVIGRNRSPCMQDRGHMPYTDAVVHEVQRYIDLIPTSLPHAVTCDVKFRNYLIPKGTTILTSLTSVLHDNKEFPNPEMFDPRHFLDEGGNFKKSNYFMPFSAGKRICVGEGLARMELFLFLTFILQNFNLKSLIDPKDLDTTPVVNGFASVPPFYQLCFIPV
Outline: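 P450-Glo CYP2C19 screening system; proluciferin substrate; DMSO compound stocks; 10 min RT preincubation; NADPH regeneration, 1 h at 37C; luciferin detection reagent, 20 min RT; luminescence as RLU.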
Potency means the concentration at half of the fitted maximal effect; tags describe the fitted curve by direction and shape.

Row | SMILES | Potency
1 | C#C[C@]1(O)CC[C@H]2[C@@H]3CCc4cc(OC5CCCC5)ccc4[C@H]3CC[C@@]21C | inconclusive: 17.4 µM [inhibitor, full curve, poor fit]
2 | O=Cc1ccccc1C=O | inconclusive: 89.4 µM [inhibitor, single point]
3 | COc1cccc2c1C(=O)c1c(O)c3c(c(O)c1C2=O)C[C@@](O)(C(=O)CO)C[C@@H]3O[C@H]1C[C@H](N)[C@H](O)[C@H](C)O1 | inconclusive: 44.7 µM [inhibitor, single point] and inactive
4 | Cc1ccc(NC(=O)c2ccc(CN3CCN(C)CC3)cc2)cc1Nc1nccc(-c2cccnc2)n1 | inactive
5 | O=C1C=CC(=O)N1 | inconclusive: 91.8 µM [inhibitor, single point]
6 | O=C(O)C1(C(=O)Nc2ccc(Cl)cc2Cl)CC1 | inconclusive: 89.4 µM [inhibitor, single point]
7 | CN(C)CCOC(c1ccccc1)c1ccc(Br)cc1 (stereo unspecified) | active: 13.8 µM
8 | COCCCC/C(=N\OCCN)c1ccc(C(F)(F)F)cc1 | active: 0.692 µM
9 | CCc1c(C(=O)NN2CCCCC2)nn(-c2ccc(Cl)cc2Cl)c1-c1ccc(Br)cc1 | inconclusive: 79.6 µM [inhibitor, single point]
10 | Cc1cccc2c1cc1ccc3cccc4ccc2c1c34 | inactive
11 | Cc1oc(-c2ccccc2)nc1CCC(=O)c1ccc(CC2SC(=O)NC2=O)cc1 (stereo unspecified) | active: 11 µM
12 | CN1CCN(C2Cc3ccccc3Sc3ccc(Cl)cc32)CC1 (stereo unspecified) | active: 11 µM
13 | N#CSc1ccc(N)c([N+](=O)[O-])c1 | inconclusive: 101 µM [inhibitor, single point]
14 | CCC(C)n1ncn(-c2ccc(N3CCN(c4ccc(OC[C@H]5CO[C@](Cn6cncn6)(c6ccc(Cl)cc6Cl)O5)cc4)CC3)cc2)c1=O (stereo partly specified) | inconclusive: 8.71 µM [inhibitor, full curve, poor fit]

Each compound was assayed against Cytochrome P450 2C9 (Homo sapiens) (UniProt P11712) (assay: Cytochrome P450 Family 2 Subfamily C Member 9 (CYP2C9) small molecule antagonists: luciferase reporter qHTS assay (AID 1671198; further: nearly all actives have a fitted effect of over 50% in size)). Details: P450-Glo CYP2C9 enzyme assay, luciferin luminescence; series mostly up to 115 µM.
UniProt P11712, sequence (P11712 whole entry, looked up): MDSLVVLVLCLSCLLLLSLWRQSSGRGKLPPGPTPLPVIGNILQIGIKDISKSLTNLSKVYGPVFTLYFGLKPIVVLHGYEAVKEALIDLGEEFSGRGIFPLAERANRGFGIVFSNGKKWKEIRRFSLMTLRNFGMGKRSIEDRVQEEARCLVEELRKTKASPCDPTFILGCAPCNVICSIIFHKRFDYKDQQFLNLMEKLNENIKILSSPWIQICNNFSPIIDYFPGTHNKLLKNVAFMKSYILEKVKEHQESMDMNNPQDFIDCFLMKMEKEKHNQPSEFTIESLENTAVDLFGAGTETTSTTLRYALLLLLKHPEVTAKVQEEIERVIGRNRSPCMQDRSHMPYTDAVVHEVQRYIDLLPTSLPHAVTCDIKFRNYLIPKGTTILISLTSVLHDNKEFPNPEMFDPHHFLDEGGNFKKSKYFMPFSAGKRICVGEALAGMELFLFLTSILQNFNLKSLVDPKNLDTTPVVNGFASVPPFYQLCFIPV
Outline: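 Enzyme-substrate mix preincubated with compound 10 min at room temperature; reaction started with NADPH regeneration solution, 1 h 37C. Luminescent luciferin product read after 20 min detection reagent.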

Row | SMILES | Potency
15 | C#C[C@]1(O)CC[C@H]2[C@@H]3CCc4cc(OC5CCCC5)ccc4[C@H]3CC[C@@]21C | active: 19.5 µM
16 | O=Cc1ccccc1C=O | active: 35.6 µM and inactive
17 | COc1cccc2c1C(=O)c1c(O)c3c(c(O)c1C2=O)C[C@@](O)(C(=O)CO)C[C@@H]3O[C@H]1C[C@H](N)[C@H](O)[C@H](C)O1 | inconclusive: 17.8 µM [inhibitor, partial curve] and inconclusive: 19.5 µM [inhibitor, partial curve]
18 | Clc1ccc2cc3ccccc3cc2c1 | inconclusive: 39.9 µM [inhibitor, partial curve]
19 | C1CNCCN1 | inconclusive: 73.1 µM [inhibitor, partial curve]
20 | O=C1NCCN1CCN1CCC(c2cn(-c3ccc(F)cc3)c3ccc(Cl)cc23)CC1 | inactive
21 | CN(C)CCOC(c1ccccc1)c1ccc(Br)cc1 (stereo unspecified) | inconclusive: 27.5 µM [inhibitor, partial curve]
22 | COCCCC/C(=N\OCCN)c1ccc(C(F)(F)F)cc1 | active: 3.89 µM
23 | Cc1cccc(C)c1NC(=O)CN1CCN(CCCC(c2ccc(F)cc2)c2ccc(F)cc2)CC1 | inconclusive: 13.8 µM [inhibitor, partial curve]
24 | CN1CCN(C2Cc3ccccc3Sc3ccc(Cl)cc32)CC1 (stereo unspecified) | inconclusive: 21.9 µM [inhibitor, partial curve]
25 | CCC(C)n1ncn(-c2ccc(N3CCN(c4ccc(OC[C@H]5CO[C@](Cn6cncn6)(c6ccc(Cl)cc6Cl)O5)cc4)CC3)cc2)c1=O (stereo partly specified) | active: 13.8 µM
26 | CNCCCN1c2ccccc2CCc2ccccc21 | inactive

Each compound was assayed against Cytochrome P450 1A2 (Homo sapiens) (UniProt P05177) (assay: Cytochrome P450 Family 1 Subfamily A Member 2 (CYP1A2) small molecule antagonists: luciferase reporter qHTS assay (AID 1671199; further: nearly all actives have a fitted effect of over 50% in size)). Details: P450-Glo CYP1A2 enzyme, luciferin luminescence, 1 h; series mostly up to 115 µM.
UniProt P05177, sequence (P05177 whole entry, looked up): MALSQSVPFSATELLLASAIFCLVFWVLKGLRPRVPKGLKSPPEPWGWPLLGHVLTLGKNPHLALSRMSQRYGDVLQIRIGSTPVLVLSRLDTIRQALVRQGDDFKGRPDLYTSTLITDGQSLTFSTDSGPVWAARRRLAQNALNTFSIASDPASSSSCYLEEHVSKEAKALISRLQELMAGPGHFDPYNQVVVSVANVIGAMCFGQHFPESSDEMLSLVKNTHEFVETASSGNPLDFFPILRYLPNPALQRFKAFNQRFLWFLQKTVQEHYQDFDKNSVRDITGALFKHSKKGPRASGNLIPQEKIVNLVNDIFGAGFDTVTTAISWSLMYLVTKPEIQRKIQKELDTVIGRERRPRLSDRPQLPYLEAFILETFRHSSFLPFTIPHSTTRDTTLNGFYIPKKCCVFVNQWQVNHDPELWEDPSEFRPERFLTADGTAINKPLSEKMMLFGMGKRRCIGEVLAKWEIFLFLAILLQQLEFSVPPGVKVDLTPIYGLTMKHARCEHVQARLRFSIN
Outline: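 Signal from luciferin formed by CYP1A2 from a proluciferin substrate is read as luminescence, expressed in relative luminescence units. Compounds sit with enzyme 10 min, NADPH-driven reaction runs 1 h, all at room temperature.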

Row | SMILES | Potency
27 | C#C[C@]1(O)CC[C@H]2[C@@H]3CCc4cc(OC5CCCC5)ccc4[C@H]3CC[C@@]21C | inconclusive: 15.5 µM [inhibitor, full curve]
28 | O=C(O)CCCCC1CCSS1 (stereo unspecified) | inactive
29 | CCCCCCCOC(=O)CCC | inconclusive: 20 µM [inhibitor, full curve]
30 | COc1cccc2c1C(=O)c1c(O)c3c(c(O)c1C2=O)C[C@@](O)(C(=O)CO)C[C@@H]3O[C@H]1C[C@H](N)[C@H](O)[C@H](C)O1 | inconclusive: 35.5 µM [inhibitor, partial curve] and inconclusive: 36.3 µM [inhibitor, partial curve, poor fit]
31 | COC(=O)C1=C(C)NC(COC(N)=O)=C(C(=O)OC(C)C)C1c1cccc(Cl)c1Cl (stereo unspecified) | inconclusive: 30.9 µM [inhibitor, partial curve, poor fit]
32 | C=C(C)C1CC=C(C)CC1 (stereo unspecified) | inconclusive: 65.5 µM [inhibitor, partial curve]
33 | CCCCCCCCCCCCN1CCCCCC1=O | inconclusive: 35.6 µM [inhibitor, full curve]
34 | O=C1NCCN1CCN1CCC(c2cn(-c3ccc(F)cc3)c3ccc(Cl)cc23)CC1 | inactive
35 | N=C1C=CC(=C(c2ccc(N)cc2)c2ccc(N)cc2)C=C1 | active: 35.6 µM
36 | O=C(O)C1(C(=O)Nc2ccc(Cl)cc2Cl)CC1 | active: 39.9 µM
37 | CN(C)CCOC(c1ccccc1)c1ccc(Br)cc1 (stereo unspecified) | active: 17.4 µM
38 | Cc1ccc(O)c(O)c1 | inconclusive: 77.4 µM [inhibitor, partial curve, poor fit]
39 | Cc1cccc2c1cc1ccc3cccc4ccc2c1c34 | active: 0.205 µM
40 | Cc1oc(-c2ccccc2)nc1CCC(=O)c1ccc(CC2SC(=O)NC2=O)cc1 (stereo unspecified) | inconclusive: 30.9 µM [inhibitor, partial curve, poor fit]
41 | O=C(O)c1cc(N=Nc2ccc([N+](=O)[O-])cc2)ccc1O | inconclusive: 62.1 µM [inhibitor, partial curve, poor fit]

— PubChem BioAssay (Tox21)
